Results from the supplement of paper PMC12217912.
This is one part of the list. Sequences were assembled here from the parent chain. Values near 0.05 are background.

B1: TEV protease; numbered along this chain (parent)
chain: MGESLFKGPRDYNPISSSICHLTNESDGHTTSLYGIGFGPFIITNKHLFRRNNGTLVVQSLHGVFKVKDTTTLQQHLVDGRDMIIIRMPKDFPPFPQKLKFREPQREERICLVTTNFQTKSMSSMVSDTSCTFPSGDGIFWKHWIQTKDGQCGSPLVSTRDGFIVGIHSASNFTNTNNYFTSVPKNFMELLTNQEAQQWVSGWRLNADSVLWGGHKVFMVKPEEPFQPVKEATQL

Variants of: B1
Assay: raw area under fraction-flipped curve 0-4 h after induction (AUC4h, not background-subtracted), DNA-recorder readout of cleavage of the substrate (dimensionless); higher = more cleavage of the substrate by the protease variant
Settings: temperature: 34 °C; time window: 0-4 h after rhamnose induction
Description: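 In vivo DNA recorder in E. coli TOP10(DE3) ΔrhaA at 34 °C. Each TEVp single-site mutant (parent TEVp 0) is paired with a single-site variant of the 7-mer TEVs (canonical ENLYFQ|S). The substrate sits between flexible linkers in a Bxb1-sfGFP-TEVs-SsrA fusion, so cleavage stabilises Bxb1 and speeds flipping of a recombination array, read by NGS. The value is the raw area under the fraction-flipped curve over 0-4 h after rhamnose induction (AUC4h), with ≥20 reads per time point. It is not background-subtracted; inactive controls average about 0.047.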
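Note: Bxb1 expression induced with 0.2% (w/v) L-rhamnose at OD600 near 0.5, cultures sampled hourly, flipped fraction per protease–substrate barcode pair counted by paired-end Illumina sequencing.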

Variant | area with substrate ENLYFAS | area with substrate ENLYFCS | area with substrate ENLYFDS | area with substrate ENLYFES | area with substrate ENLYFFS | area with substrate ENLYFHS | area with substrate ENLYFIS | area with substrate ENLYFKS | area with substrate ENLYFLS | area with substrate ENLYFMS | area with substrate ENLYFPS | area with substrate ENLYFRS | area with substrate ENLYFSS | area with substrate ENLYFTS | area with substrate ENLYFGS | area with substrate ENLYFVS | area with substrate ENLYFWS | area with substrate ENLYFYS | area with substrate ENLYFNS
MGESLFKGPRDYNPISSSICHLTNESDGHTTSLYGIGFGPFIITNKHLFRRNNGTLVVQSLHGVFKVKDTTTLQQHLVDGRDMINIRMPKDFPPFPQKLKFREPQREERICLVTTNFQTKSMSSMVSDTSCTFPSGDGIFWKHWIQTKDGQCGSPLVSTRDGFIVGIHSASNFTNTNNYFTSVPKNFMELLTNQEAQQWVSGWRLNADSVLWGGHKVFMVKPEEPFQPVKEATQL [I85N] | 0.0455 | 0.0519 | 0.0509 | 0.0452 | 0.0502 | 0.0464 | 0.0412 | 0.0491 | 0.0446 | 0.0483 | 0.039 | 0.0335 | 0.0467 | 0.043 |  |  |  |  | 
MGESLFKGPRDYNPISSSICHLTNESDGHTTSLYGIGFGPFIITNKHLFRRNNGTLVVQSLHGVFKVKDTTTLQQHLVDGRDMISIRMPKDFPPFPQKLKFREPQREERICLVTTNFQTKSMSSMVSDTSCTFPSGDGIFWKHWIQTKDGQCGSPLVSTRDGFIVGIHSASNFTNTNNYFTSVPKNFMELLTNQEAQQWVSGWRLNADSVLWGGHKVFMVKPEEPFQPVKEATQL [I85S] | 0.0505 |  |  | 0.0455 | 0.057 |  | 0.0555 |  |  | 0.048 | 0.0553 | 0.0463 |  |  | 0.0455 | 0.0523 | 0.0484 | 0.0544 | 
MGESLFKGPRDYNPISSSICHLTNESDGHTTSLYGIGFGPFIITNKHLFRRNNGTLVVQSLHGVFKVKDTTTLQQHLVDGRDMIQIRMPKDFPPFPQKLKFREPQREERICLVTTNFQTKSMSSMVSDTSCTFPSGDGIFWKHWIQTKDGQCGSPLVSTRDGFIVGIHSASNFTNTNNYFTSVPKNFMELLTNQEAQQWVSGWRLNADSVLWGGHKVFMVKPEEPFQPVKEATQL [I85Q] | 0.048 |  | 0.0466 | 0.0608 | 0.0651 | 0.0519 | 0.0484 | 0.054 |  | 0.0652 | 0.0547 | 0.0569 | 0.0505 |  | 0.055 |  | 0.0299 | 0.051 | 
MGESLFKGPRDYNPISSSICHLTNESDGHTTSLYGIGFGPFIITNKHLFRRNNGTLVVQSLHGVFKVKDTTTLQQHLVDGRDHIIIRMPKDFPPFPQKLKFREPQREERICLVTTNFQTKSMSSMVSDTSCTFPSGDGIFWKHWIQTKDGQCGSPLVSTRDGFIVGIHSASNFTNTNNYFTSVPKNFMELLTNQEAQQWVSGWRLNADSVLWGGHKVFMVKPEEPFQPVKEATQL [M83H] | 0.0496 |  | 0.0603 | 0.0565 | 0.0655 | 0.0512 | 0.0527 |  | 0.0513 | 0.0569 | 0.0378 | 0.0454 | 0.0522 |  | 0.0449 |  | 0.0393 |  | 
MGESLFKGPRDYNPISSSICHLTNESDGHTTSLYGIGFGPFIITNKHLFRRNNGTLVVQSLHGVFKVKDTTTLQQHLVDGRDNIIIRMPKDFPPFPQKLKFREPQREERICLVTTNFQTKSMSSMVSDTSCTFPSGDGIFWKHWIQTKDGQCGSPLVSTRDGFIVGIHSASNFTNTNNYFTSVPKNFMELLTNQEAQQWVSGWRLNADSVLWGGHKVFMVKPEEPFQPVKEATQL [M83N] | 0.0591 |  |  | 0.0589 | 0.0541 |  | 0.0547 |  | 0.0522 | 0.0452 | 0.058 | 0.0479 | 0.0709 | 0.0406 | 0.0542 |  | 0.0429 | 0.0413 | 0.0384
MGESLFKGPRDYNPISSSICHLTNESDGHTTSLYGIGFGPFIITNKHLFRRNNGTLVVQSLHGVFKVKDTTTLQQHLVDGRDMIIHRMPKDFPPFPQKLKFREPQREERICLVTTNFQTKSMSSMVSDTSCTFPSGDGIFWKHWIQTKDGQCGSPLVSTRDGFIVGIHSASNFTNTNNYFTSVPKNFMELLTNQEAQQWVSGWRLNADSVLWGGHKVFMVKPEEPFQPVKEATQL [I86H] | 0.0252 | 0.0599 |  |  | 0.0433 |  | 0.0142 | 0.0427 |  |  | 0.0386 | 0.0311 | 0.0394 |  | 0.0436 | 0.0302 |  |  | 
MGESLFKGPRDYNPISSSICHLTNESDGHTTSLYGIGFGPFIITNKHLFRRNNGTLVVQSLHGVFKVKDTTTLQQHLVDGRDMIIMRMPKDFPPFPQKLKFREPQREERICLVTTNFQTKSMSSMVSDTSCTFPSGDGIFWKHWIQTKDGQCGSPLVSTRDGFIVGIHSASNFTNTNNYFTSVPKNFMELLTNQEAQQWVSGWRLNADSVLWGGHKVFMVKPEEPFQPVKEATQL [I86M] | 0.0489 | 0.0703 | 0.0388 | 0.0676 | 0.0622 |  | 0.0477 | 0.11 | 0.0389 | 0.0542 |  | 0.0572 |  |  |  |  |  | 0.0446 | 
MGESLFKGPRDYNPISSSICHLTNESDGHTTSLYGIGFGPFIITNKHLFRRNNGTLVVQSLHGVFKVKDTTTLQQHLVDGRDMMIIRMPKDFPPFPQKLKFREPQREERICLVTTNFQTKSMSSMVSDTSCTFPSGDGIFWKHWIQTKDGQCGSPLVSTRDGFIVGIHSASNFTNTNNYFTSVPKNFMELLTNQEAQQWVSGWRLNADSVLWGGHKVFMVKPEEPFQPVKEATQL [I84M] | 0.0394 |  | 0.0494 |  | 0.0636 |  | 0.0622 |  | 0.0716 | 0.0595 | 0.065 | 0.0493 |  |  |  | 0.0583 |  | 0.0608 | 0.0632
